Measured values reported in patent publication US20250353894A1 (UNIVERSITAT ULM, published 2025).

Molecular target: T1, complement protein C3b (UniProt P01024 in part; P01024 23-667)
T1 construct: also called factor C3b
Assay: SPR, C3b coupled to chip, 1:1 steady state affinity model
Protocol: A surface plasmon resonance (SPR)-based assay (Schmidt et al. (2013), Journal of Immunology 190:5712-5721) was used to determine the affinity of the engineered complement inhibitors for the key complement protein C3b. 1940 response units […] of C3b were coupled to the chip. The samples were run at 25 μl/min in a concentration series with the highest and the lowest concentrations being assayed in duplicate to probe reproducibility. To get an estimation of the KD value for other proteins the plot of response (during steady state) against the assayed concentration was fitted to a 1:1 steady state affinity model.

T1 sequence (P01024 749-1663 limits assumed, chain 1 of 2): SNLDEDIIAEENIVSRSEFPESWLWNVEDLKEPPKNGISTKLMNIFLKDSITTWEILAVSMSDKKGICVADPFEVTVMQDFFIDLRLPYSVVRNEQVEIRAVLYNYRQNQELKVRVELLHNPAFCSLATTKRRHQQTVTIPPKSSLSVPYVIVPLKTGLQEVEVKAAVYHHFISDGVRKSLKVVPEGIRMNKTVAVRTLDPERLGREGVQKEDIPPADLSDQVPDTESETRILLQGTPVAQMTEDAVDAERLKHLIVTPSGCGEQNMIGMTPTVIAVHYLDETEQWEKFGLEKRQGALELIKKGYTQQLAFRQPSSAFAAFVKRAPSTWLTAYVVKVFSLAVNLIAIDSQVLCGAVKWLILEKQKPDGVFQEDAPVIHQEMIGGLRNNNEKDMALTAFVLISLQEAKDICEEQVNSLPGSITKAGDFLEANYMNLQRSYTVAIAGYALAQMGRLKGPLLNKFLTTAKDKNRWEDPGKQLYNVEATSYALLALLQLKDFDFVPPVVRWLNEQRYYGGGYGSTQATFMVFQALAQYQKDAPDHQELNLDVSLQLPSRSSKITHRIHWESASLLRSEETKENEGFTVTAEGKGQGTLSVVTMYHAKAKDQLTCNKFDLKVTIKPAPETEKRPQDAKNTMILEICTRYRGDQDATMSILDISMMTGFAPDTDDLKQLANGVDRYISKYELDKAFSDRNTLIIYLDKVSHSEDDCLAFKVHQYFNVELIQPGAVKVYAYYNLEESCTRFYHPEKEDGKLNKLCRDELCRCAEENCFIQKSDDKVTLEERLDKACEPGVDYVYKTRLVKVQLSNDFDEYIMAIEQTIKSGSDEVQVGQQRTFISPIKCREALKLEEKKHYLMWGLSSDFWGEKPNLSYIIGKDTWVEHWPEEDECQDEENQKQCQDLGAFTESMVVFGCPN
T1 sequence (P01024 23-667 limits assumed, chain 2 of 2): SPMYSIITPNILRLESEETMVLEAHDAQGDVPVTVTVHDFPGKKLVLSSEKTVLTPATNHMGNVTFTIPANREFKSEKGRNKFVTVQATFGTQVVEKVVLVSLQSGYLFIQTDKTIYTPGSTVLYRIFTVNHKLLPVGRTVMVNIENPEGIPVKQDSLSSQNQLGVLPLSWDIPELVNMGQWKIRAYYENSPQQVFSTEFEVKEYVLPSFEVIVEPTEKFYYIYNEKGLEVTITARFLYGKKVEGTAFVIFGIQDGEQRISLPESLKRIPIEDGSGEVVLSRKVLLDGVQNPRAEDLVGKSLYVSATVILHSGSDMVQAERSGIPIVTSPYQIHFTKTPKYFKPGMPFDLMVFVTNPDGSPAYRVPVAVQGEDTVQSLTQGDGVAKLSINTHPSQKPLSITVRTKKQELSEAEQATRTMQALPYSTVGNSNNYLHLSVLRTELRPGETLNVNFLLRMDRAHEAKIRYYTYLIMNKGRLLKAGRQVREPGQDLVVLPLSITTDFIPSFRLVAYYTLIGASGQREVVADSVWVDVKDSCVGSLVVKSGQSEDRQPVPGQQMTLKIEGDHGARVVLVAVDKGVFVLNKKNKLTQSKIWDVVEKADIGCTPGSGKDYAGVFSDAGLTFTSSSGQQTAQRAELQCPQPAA

B1: CR1(1-3)FH(19-20) long linker (other)
chain: QCNAPEWLPFARPTQLTDEFEFPIGTYLNYECRPGYSGRPFSIICLKNSVWTGAKDRCRRKSCRNPPDPVNGMVHVIKGIQFGSQIKYSCTKGYRLIGSSSATCIISGDTVIWDQETPICDRIPCGLPPTITNGDFISTNRENFHYGSVVTYRCNPGSGGRKVFELVGEPSIYCTSNDDQVGIWSGPAPQCIIGGGGGGGGGGGGGGKCGPPPPIDNGDITSFPLSVYAPASSVEYQCQNLYQLEGNKRITCRNGQWSEPPKCLHPCVISREIMENYNIALRWTAKQKLYSRTGESVEFVCKRGYRLSSRSHTLRTTCWDGKLEYPTCA
notes: Fusion protein with an oligo-glycine linker; also called CR1(1-3)FH(19-20)-LL
Kd: 389 nM
